In patent US8669255B2, “Substituted octahydropyrrolo[1,2-a]pyrazines as calcium channel blockers” (AbbVie Inc., priority 2011, dated 2014) one finds IC50 data, which are given here for 12 compounds.

The test addresses human Cav2.2 (Homo sapiens, UniProt Q00975). In words: In vitro assessment of calcium channel activity using FLIPR (Ca2+ influx in IMR32 cells). The format is cell-based. Particulars: IMR32 cells endogenously expressing human Cav2.2; 60 minute pre-incubation; 2 μM nifedipine; depolarized with 80 mM KCl; average of at least two runs unless marked (*).
Turning to `O=C(c1ccc(C(F)(F)F)cc1F)N1CCN2C[C@H](Oc3cnc(C4CC4)cn3)C[C@H]2C1` [Example 78, [(7R,8aS)-7-[(5-cyclopropylpyrazin-2-yl)oxy]hexahydropyrrolo[1,2-a]-pyrazin-2(1H)-yl][2-fluoro-4-(trifluoromethyl)phenyl]methanone], the IC50 is 2.33 µM.
The same measure for `O=C(c1cc(C(F)(F)F)ccc1F)N1CCN2C[C@H](Oc3cnc(C4CC4)cn3)C[C@H]2C1` [Example 79, [(7R,8aS)-7-[(5-cyclopropylpyrazin-2-yl)oxy]hexahydropyrrolo[1,2-a]-pyrazin-2(1H)-yl][2-fluoro-5-(trifluoromethyl)phenyl]methanone]: 2.66 µM; for `O=C(c1cccc(C(F)(F)F)c1F)N1CCN2C[C@H](Oc3cnc(C4CC4)cn3)C[C@H]2C1` [Example 80, [(7R,8aS)-7-[(5-cyclopropylpyrazin-2-yl)oxy]hexahydropyrrolo[1,2-a]-pyrazin-2(1H)-yl][2-fluoro-3-(trifluoromethyl)phenyl]methanone]: 1.54 µM; for `O=C(c1cccc(OC(F)(F)F)c1)N1CCN2C[C@H](Oc3cnc(C4CC4)cn3)C[C@H]2C1` [Example 81, [(7R,8aS)-7-[(5-cyclopropylpyrazin-2-yl)oxy]hexahydropyrrolo[1,2-a]-pyrazin-2(1H)-yl][3-(trifluoromethoxy)phenyl]methanone]: 1.35 µM.
Take `O=C(c1ccc(F)c(Cl)c1)N1CCN2C[C@H](Oc3cnc(C4CC4)cn3)C[C@H]2C1` [Example 82, (3-chloro-4-fluorophenyl)[(7R,8aS)-7-[(5-cyclopropylpyrazin-2-yl)oxy]-hexahydropyrrolo[1,2-a]pyrazin-2(1H)-yl]methanone]: the half-maximal inhibitory concentration (IC50) was found to be 7.05 µM.
For `O=C(c1cc(F)cc(F)c1)N1CCN2C[C@H](Oc3cnc(C4CC4)cn3)C[C@H]2C1` [Example 83, [(7R,8aS)-7-[(5-cyclopropylpyrazin-2-yl)oxy]hexahydropyrrolo[1,2-a]-pyrazin-2(1H)-yl](3,5-difluorophenyl)methanone] the value was 6.28 µM; for `O=C(c1ccc(F)c(Cl)c1F)N1CCN2C[C@H](Oc3cnc(C4CC4)cn3)C[C@H]2C1` [Example 84, (3-chloro-2,4-difluorophenyl)[(7R,8aS)-7-[(5-cyclopropylpyrazin-2-yl)-oxy]hexahydropyrrolo[1,2-a]pyrazin-2(1H)-yl]methanone], 5.08 µM.
For the compound `FC(F)(F)c1cccc(N2CCN3C[C@H](Oc4ccc(Cl)cn4)C[C@H]3C2)n1` [Example 85, (7R,8aS)-7-[(5-chloropyridin-2-yl)oxy]-2-[6-(trifluoromethyl)pyridin-2-yl]-octahydropyrrolo[1,2-a]pyrazine], the IC50 was determined as 4.72 µM.
For `FC(F)(F)c1ccc(N2CCN3C[C@H](Oc4ccc(Cl)cn4)C[C@H]3C2)nc1` [Example 86, (7R,8aS)-7-[(5-chloropyridin-2-yl)oxy]-2-[5-(trifluoromethyl)pyridin-2-yl]-octahydropyrrolo[1,2-a]pyrazine] the value was above 30 µM; for `FC(F)(F)c1cccc(O[C@@H]2C[C@H]3CN(c4cccc(C(F)(F)F)n4)CCN3C2)n1` [Example 87, (7R,8aS)-2-[6-(trifluoromethyl)pyridin-2-yl]-7-{[6-(trifluoromethyl)pyridin-2-yl]oxy}octahydropyrrolo[1,2-a]pyrazine], 4.64 µM.
The same measure for `FC(F)(F)c1cccc(O[C@@H]2C[C@H]3CN(c4ccc(Cl)cn4)CCN3C2)n1` [Example 88, (7R,8aS)-2-(5-chloropyridin-2-yl)-7-{[6-(trifluoromethyl)pyridin-2-yl]-oxy}octahydropyrrolo[1,2-a]pyrazine]: 4.23 µM; for `FC(F)(F)c1cccc(N2CCN3C[C@H](Oc4cnc(C5CC5)cn4)C[C@H]3C2)n1` [Example 89, (7R,8aS)-7-[(5-cyclopropylpyrazin-2-yl)oxy]-2-[6-(trifluoromethyl)pyridin-2-yl]octahydropyrrolo[1,2-a]pyrazine]: 2.01 µM.

As usually defined, the IC50 is the point on the concentration scale where inhibition reaches its midpoint.
